# From PubChem BioAssay AID624417 (National Center for Advancing Translational Sciences (NCATS), 2012)
# Out of some 410,000 compounds screened, about 6,400 (1.6%) were called active. Inconclusive results, whose numbers are uncertain, are shown with a selection of clear calls. Calls follow the shape of the dose curve; as a rule, active = well fitted inhibition curve with a large enough effect; inconclusive = small, poorly fitted or top-dose-only effect; inactive = no such curve, though single readings can be large or run the other way. Potencies of inconclusive entries are left out as doubtful fits.
# Target: Glucagon-like peptide 1 receptor (Homo sapiens) (UniProt P43220)
# Experiment: qHTS of GLP-1 Receptor Inverse Agonists (Inhibition Mode); also: nearly all actives have a fitted effect of over 55% in size
# Conditions: HEK293 GLP-1R CRE-luciferase, luminescence, 24 h, GLP-1R form is constitutively active; activity change, negative = inhibition: at 38.3 µM (top of the series) unless noted
# Summary of the method: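 Stable HEK293 clone (constitutively active GLP-1R + cAMP-response luciferase); 200 cells/uL plated, 12 h pre-culture, compound 24 hr, 37 deg C/5% CO2; detection reagent 12 min RT; luminescence.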
# % is scaled to controls: 0 for no effect and ±100 for the full control effect; potency is read from the fitted curve at half-maximal effect; tags tell the direction and shape of the fitted curve.
# Sequence of UniProt P43220 (P43220 whole entry, looked up): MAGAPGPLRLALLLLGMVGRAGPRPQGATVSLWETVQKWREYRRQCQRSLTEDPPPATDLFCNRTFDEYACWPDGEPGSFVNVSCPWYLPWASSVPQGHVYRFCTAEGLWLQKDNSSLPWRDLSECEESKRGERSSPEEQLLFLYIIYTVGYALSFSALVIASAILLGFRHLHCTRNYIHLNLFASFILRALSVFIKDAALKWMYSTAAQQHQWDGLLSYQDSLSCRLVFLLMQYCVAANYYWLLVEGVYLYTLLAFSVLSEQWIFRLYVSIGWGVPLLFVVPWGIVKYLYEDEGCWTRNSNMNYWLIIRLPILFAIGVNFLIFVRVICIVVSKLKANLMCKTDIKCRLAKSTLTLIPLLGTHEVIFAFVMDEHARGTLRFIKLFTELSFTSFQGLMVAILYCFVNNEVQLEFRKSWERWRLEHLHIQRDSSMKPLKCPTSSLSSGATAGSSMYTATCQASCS
Compound,Potency,"activity change, negative = inhibition"
O=C(NCCC(c1ccccc1)c1ccccc1)c1cccs1,"inconclusive [inhibitor, partial curve, poor fit]",–
CCOCCCNC(=O)C(c1ccc(Cl)cc1)N(Cc1cccs1)C(=O)c1ccc(NC(C)=O)cc1 (stereo not drawn),"inconclusive [inhibitor, single point]",–
Cc1cc(C)n(-c2nc(NCCN(C)C)c3c4c(sc3n2)COC(C)(C)C4)n1,"inconclusive [inhibitor, full curve]",–
Cc1ccc(NC(=O)CN2C(=O)C3(SCC(=O)N3c3ccc(F)c(F)c3)c3ccccc32)c(C)c1 (stereo not drawn),–,inactive: -27.3%
CC(C)(C)C(=O)OCc1ccc(C2=CC(=O)CC(C)(C)C2=O)cc1,"inconclusive [inhibitor, partial curve, poor fit]",–
CCC(C)(C)C1CCc2[nH]nc(C(=O)N/N=C(\C)c3ccco3)c2C1 (stereo not drawn),"inconclusive [inhibitor, partial curve]",–
CCc1ccc(CN2CCC(Oc3ccc(C(=O)NCc4ccccn4)cc3)CC2)o1,"inconclusive [inhibitor, single point]",–
CCOC(=O)CCCc1sc(N)nc1-c1[nH]c(=O)[nH]c1C,–,inactive: -4.74%
O=C(Nc1ccc(C(=O)N2CCN(c3ccccc3)CC2)cc1)C1=CSCCO1,"inconclusive [inhibitor, single point]",–
CC1=C(C)CS(=O)N(S(=O)(=O)c2ccc(Cl)cc2)C1 (stereo not drawn),–,inactive: -14.4%
C=CCOc1ccccc1CNc1cccc(F)c1,"inconclusive [inhibitor, single point]",–
C#CCOc1ccccc1/C=N/NC(=O)c1ccccc1OCc1ccccc1,"inconclusive [inhibitor, single point]",–
Cc1cc(N2CCN(C)CC2)n2cc(-c3ccc(F)cc3)nc2n1,–,inactive: 0%
O=c1[nH][nH]c2c1[C@H](c1ccc(F)cc1)O[C@H](C1CCCCC1)C2,active: 2.82 µM,–
O=C(c1ccc2c(c1)OCO2)N1CCN(c2ccccc2F)CC1,"inconclusive [inhibitor, single point]",–
CCOC(=O)N1CCC(NC(=O)c2ccc3c(c2)N=C(C)c2ccccc2S3)CC1,"inconclusive [inhibitor, partial curve, poor fit]",–
O=C(C1CCCN(c2ncnc3c2nc2n3CCCCC2)C1)N1CCN(c2ccc(Cl)cc2)CC1 (stereo not drawn),"inconclusive [inhibitor, partial curve, poor fit]",–
COc1cc(C2c3cc4c(cc3C(O)C3COCC23)OCO4)cc(OC)c1OC (stereo not drawn),"inconclusive [inhibitor, partial curve]",–
